Tests used:
[1] = tested on: human lung cancer cell line NCI-H292; test: anti-tumor activity: NCI-H292 growth with stimulated PBMCs and ATP (IncuCyte); type: cell-based; conditions: ATP 250 μM, antibody 10 μg/ml (FIG. 32)
Description: The human lung cancer cell line NCI-H292 having red fluorescent protein (RFP) was seeded on a 96-well plate and cultured overnight. The next day, after removal of the medium, IL-2 (Miltenyi, 130-097-745) at a final concentration of 30 IU as suspended in X-VIVO-15™ medium (Lonza, 04-418Q) and an anti-human CD39 antibody or isotype control antibody at a final concentration of 0.3 to 100 μg/mL were added and the mixture was incubated at 37° C. for 30 minutes. Then, PBMCs from healthy volunteers stimulated with Dynabeads™ Human T-Activator CD3/CD28 (VERITAS, DB11131) for 10 days were added at an E/T ratio of 2 and the mixture was incubated at 37° C. for 30 minutes. […] This made it possible to evaluate the anti-tumor activity of the antibody due to its ability to promote the cytotoxic activity of PBMCs.

human CD39 = target: T1, human CD39 (Homo sapiens, UniProt P49961); test: CD39 binding analysis (FCM) using human CD39-overexpressing cells; conditions: 293T-hCD39 or Jurkat-hCD39 cells
T1 sequence (P49961 1-510): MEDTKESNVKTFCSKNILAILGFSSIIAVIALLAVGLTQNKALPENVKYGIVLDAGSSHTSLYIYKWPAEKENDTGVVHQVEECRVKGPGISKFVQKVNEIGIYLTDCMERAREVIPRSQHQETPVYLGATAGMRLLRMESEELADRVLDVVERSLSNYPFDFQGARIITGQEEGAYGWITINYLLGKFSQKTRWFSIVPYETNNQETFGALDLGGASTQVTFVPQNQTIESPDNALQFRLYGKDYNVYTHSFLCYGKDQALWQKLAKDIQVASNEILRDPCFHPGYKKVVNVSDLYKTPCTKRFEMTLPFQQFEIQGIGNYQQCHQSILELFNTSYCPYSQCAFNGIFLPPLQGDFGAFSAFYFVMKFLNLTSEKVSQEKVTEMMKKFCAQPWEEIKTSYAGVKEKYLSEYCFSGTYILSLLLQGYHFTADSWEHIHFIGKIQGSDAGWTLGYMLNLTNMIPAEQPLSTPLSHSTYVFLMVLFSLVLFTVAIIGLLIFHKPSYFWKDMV
Description: 3.1 CD39 binding analysis (FCM analysis) (using human CD39) Binding to target antigen-expressing cells was analyzed by FCM analysis using human CD39-overexpressing cells. The human CD39-overexpressing cells were generated using a lentiviral vector system (OriGene, PS100069). Lentiviral particles carrying the human CD39 gene (Gene ID: 953) as the target gene together with the puromycin resistance gene were generated and used to infect HEK293T or Jurkat cells therewith. Then, the cells were cultured in the presence of puromycin. HEK293T or Jurkat cells ([…] or Jurkat-hCD39) in which the target gene was integrated into the genome and which became positive for human CD39 were collected and used for FCM analysis. Test or isotype control antibodies at a final concentration of 2 μg/mL or at the concentrations indicated in the figure were reacted with 1×10^5 cells for 15 minutes at 4° C., followed by washing twice with 0.5% BSA, 2 mM EDTA, and D-PBS. After washing, a fluorescent-labeled secondary antibody (anti-human IgG Fc, HP6017) was added, and the cells were stained at 4° C. for 15 minutes under light-shielded conditions, followed by washing twice in a similar manner. After addition of 7AAD (BioLegend, 420404), fluorescence intensity was measured using a flow cytometer (FACSVerse, BD). Antibody binding was evaluated based on the fluorescence intensity obtained.

B1: P4_h1lala: chimeric antibody with VH and Vκ of P4_sc, human IgG1-lala (Fc silent) and human light chain constant region (antibody)
heavy: QVQLKESGPSLVQPSQSLSITCTVSGFSLTNYGVHWVRQSPGKGLEWLGVILRRGSTDYNAAFMSRLSITKDNSKSQVFFKMNSLQADDTAIYYCAKTAVVAGDYFDYWGQGTTLTVSSASTKGPSVFPLAPSSKSTSGGTAALGCLVKDYFPEPVTVSWNSGALTSGVHTFPAVLQSSGLYSLSSVVTVPSSSLGTQTYICNVNHKPSNTKVDKKV[human IgG1 Fc with changes skipped]
light: DIVMTQSHKFMSTSVGDRVSVTCKASQNVGTNVAWYQQKPGQSPKALIYSASYRYSGVPDRFTGSGSGTDFTLTISNVQSEDLAEYFCQQYNSYPLTFGTGTKLEIKRTVAAPSVFIFPPSDEQLKSGTASVVCLLNNFYPREAKVQWKVDNALQSGNSQESVTEQDSKDSTYSLSSTLTLSKADYEKHKVYACEVTHQGLSSPVTKSFNRGEC
overall difference in cancer cell growth compared to isotype control [1]: large
time after treatment at which a difference to the isotype control starts to appear [1]: about 20 hours
affinity for human CD39 on the cell surface (human CD39): favorable affinity
